This note sets out measurements from PubChem BioAssay AID1347073 (National Center for Advancing Translational Sciences (NCATS), 2019).

Hit rate of the full screen: of about 45,000 compounds, about 200 (0.44%) were called active. Inconclusive results (about 7%) are left out. Calls follow the shape of the dose curve; as a rule, active = well fitted activation curve with a large enough effect; inconclusive = small, poorly fitted or top-dose-only effect; inactive = no such curve, though single readings can be large or run the other way. This is one part of the list.

The test can be described thus: qHTS of TDP-43 Inhibitors: NCGC Sytravon Library Screen. Also: 0% is about no effect; nearly all actives have a fitted effect of over 55% in size. To be noted: yeast TDP-43 toxicity rescue, BacTiter-Glo growth, 24 h; series mostly up to 46.1 µM; growth rescue (activation): at the top concentration. An outline of the steps: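 TDP-43-expressing yeast, pregrown in raffinose, seeded at OD600 0.02 in galactose medium with compound for 24 hr at 30 deg C. Growth read by BacTiter-Glo luminescence, so rescue of toxicity appears as activation.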
In general terms: Quantitative high-throughput screening tests each substance at several concentrations.
`COc1ccc(C2C(C#N)=C(N)Oc3n[nH]c(-c4ccccn4)c32)c(OC)c1OC` (stereo not drawn): the “growth rescue (activation)” value is inactive: -8.64%.
As for `CC(C)CC(N)c1csc(NC(=O)Nc2ccccc2C(C)C)n1` (stereo not drawn), the “growth rescue (activation)” value is inactive: 13.6%.
As for `COCc1cccc(-c2csc(C(NC(C)=O)c3cccc(OC)c3)n2)c1` (stereo not drawn), the “growth rescue (activation)” value is inactive: 4.38%.
Regarding `OC(c1ccc(F)cc1)c1ncc(-c2ccccc2Cl)[nH]1` (stereo not drawn), the “growth rescue (activation)” value is inactive: 2.86%.
For the compound `O=C(COC(=O)c1cccs1)Nc1ccc(S(=O)(=O)N2CCOCC2)cc1`, the “growth rescue (activation)” value is inactive: 7.53%.
Under `CCOc1ccc(S(=O)(=O)N2CCN(C(=S)NCc3ccco3)CC2)cc1` stands inactive: -23.2%; under `CCOC(=O)N1CCN(c2nc(-c3cccs3)nc3ccccc23)CC1`, inactive: 5.56%.
To `COc1ccccc1N1CCN(C(=O)CN2C(=O)c3ccccc3C2=O)CC1` belongs inactive: 4.25%.
As for `CC(=O)NC(C)(c1ccccc1)c1nc(-c2cccc(F)c2)cs1` (stereo not drawn), the “growth rescue (activation)” value is inactive: 15%.
Turning to `CCOc1ccc(NC(=O)NC2CCS(=O)(=O)C2)cc1` (stereo not drawn), the “growth rescue (activation)” value was inactive: 10.5%.
To `O=C(NCCCl)NNC(=O)c1cc2ccccc2cc1O` belongs inactive: -24.4%.
For `CNc1ncnc2c1ncn2[C@H]1CN(C2CCCC2)C[C@@H](CO)O1`, the “growth rescue (activation)” value is inactive: 10.9%.
In the case of `COc1ccc(N2CCN(CC(O)COc3ccc(C)cc3C)CC2)cc1` (stereo not drawn), the “growth rescue (activation)” value is inactive: -7.59%.
On to `COc1cccc(C(=O)NCC(=O)N/N=C/c2cn[nH]c2-c2ccccc2)c1`, for which the “growth rescue (activation)” value is inactive: 13.7%.
Consider `O=C(NNC(=O)c1cc(-c2ccccc2)nn1-c1ccccc1)c1ccccc1`, for which the “growth rescue (activation)” value is inactive: 25.7%.
To `CC(=O)OC[C@@H]1CN(Cc2ccccc2)C[C@H](n2cnc3c(NCc4ccc(F)cc4)ncnc32)O1` belongs inactive: 4.65%; to `C/C(CC(=O)Nc1ccc2c(c1)OCCO2)=N\NC(=O)COc1ccc(C)cc1Br`, inactive: 18.5%.
To `CNC(=S)NNS(=O)(=O)c1ccc(OC)cc1OC` belongs inactive: 7.62%; to `Cc1oc(-c2cccs2)nc1CN1CCC(C(=O)N2CCCC2)CC1`, inactive: 17.2%.
`CCc1ccc(C(=O)N2CCN(c3ccc(NC(=O)c4ccco4)cc3)CC2)cc1`: the “growth rescue (activation)” value is inactive: 40.5%.
Under `S=c1[nH]nc(-c2cccc(Cl)c2)n1Cc1ccccc1` stands inactive: 20.5%.
For the compound `O=C(CCc1nnc(-c2ccc3c(c2)OCO3)o1)N1CCC(c2ccc(F)cc2)C1` (stereo not drawn), the “growth rescue (activation)” value is inactive: 21.5%.
Under `Cc1ccc(S(=O)(=O)N2CCCC(C(=O)NCC(C)C)C2)cc1` (stereo not drawn) stands inactive: 13.4%; under `Cc1nnnn1CC(=O)Nc1ccccc1[N+](=O)[O-]`, inactive: 14.6%; under `COC(=O)c1cc(NC(=S)N2CCN(c3ccccn3)CC2)cc(C(=O)OC)c1`, inactive: 17.8%.
With `CCOC(=O)c1cc(S(=O)(=O)NC2CCN(C(=O)OCC)CC2)cn1C`, the “growth rescue (activation)” value was inactive: -13%.
Under `O=C(COC(=O)c1cccnc1Cl)Nc1cc(S(=O)(=O)N2CCCCCC2)ccc1Cl` stands inactive: 30.8%.
As to `Cc1cc(NC(=O)COc2cccc(Oc3ccccc3)c2)no1`, the “growth rescue (activation)” value was inactive: -8.59%.
To `C/C(=C\C(=O)c1sccc1Cl)N(C)C` belongs inactive: -6.24%; to `CC(O)CCC(=O)NNC1CC(=O)N(c2ccccc2)C1=O` (stereo not drawn), inactive: 18.7%.
To `NNc1nc(-c2ccccc2)cs1` belongs inactive: 5.02%.
Under `O=S(=O)(Nc1ccccc1Br)c1cccs1` stands inactive: 18.6%; under `CCN(CC)S(=O)(=O)c1ccc(C)c(NC(=O)CSc2nc3ccc(C)cc3[nH]2)c1`, inactive: 10.6%.
For `Cc1ccc(NC(=O)C(C)N=C2NS(=O)(=O)c3ccccc32)cc1F` (stereo not drawn), the “growth rescue (activation)” value was inactive: -11.1%.
Under `COc1ccccc1N1CCN(CCNC(=O)Nc2cccc(C)c2C)CC1` stands inactive: -3.5%; under `COCCn1c(=O)[nH]c(=O)c2c1nc(-c1ccc(-c3ccc(Cl)cc3[N+](=O)[O-])o1)n2Cc1ccccc1`, inactive: 20%.
To `COC(=O)CCCC(=O)N(C)CC1CCCN(CCc2ccccc2C)C1` (stereo not drawn) belongs inactive: -5.55%.
`Cc1ccc(S(=O)(=O)c2nc(-c3cccs3)oc2N2CCC(C(N)=O)CC2)cc1`: the “growth rescue (activation)” value is inactive: -3.17%.
Consider `COc1ccccc1CNC(=O)C(C)c1ccc([N+](=O)[O-])cc1` (stereo not drawn), for which the “growth rescue (activation)” value was inactive: 11.2%.
Under `O=C(NCc1ccccc1Cl)c1cc(=O)[nH]c2ccccc12` stands inactive: 10.9%; under `Cc1ccccc1NC(=O)N1CCc2cc(S(=O)(=O)N3CCC(C)CC3)ccc21`, inactive: 5.17%; under `Cc1ccc(Nc2nc3ccccc3s2)cc1`, inactive: 20.5%.
Consider `COc1cc(/C=C/C(=O)O)cc(S(=O)(=O)Nc2cc(Cl)c(Cl)cc2Cl)c1OC`, for which the “growth rescue (activation)” value was inactive: -1.99%.
Regarding `CC(=O)Nc1cncc(-c2cccc(C(=O)N(C)C)c2)n1`, the “growth rescue (activation)” value is inactive: 16.6%.
On to `O=C(NNC(=O)c1cc2ccccc2cc1O)c1cccs1`, for which the “growth rescue (activation)” value was inactive: 4.69%.
For the compound `COc1ccc(CCNC(=O)CCC(=O)Nc2nnc(C(C)C)s2)cc1OC`, the “growth rescue (activation)” value is inactive: -1.39%.
For the compound `CC(C)c1csc(CN2CCN(Cc3ccccc3)C(CCO)C2)n1` (stereo not drawn), the “growth rescue (activation)” value is inactive: -3.02%.
Under `Cc1ccsc1/C=N/n1cnnc1` stands inactive: 8.91%; under `O=C1c2ccccc2C(=O)N1Cc1ccccc1F`, inactive: 6.47%.
Under `COc1ccccc1NC(=S)NCC1CCCO1` (stereo not drawn) stands inactive: 6.75%.
To `CN1CCN(Cc2nc3ccccc3c(=O)n2Cc2nc(-c3ccc4ccccc4c3)cs2)CC1` belongs inactive: -15.6%; to `COc1cc(C(=O)NCc2ncccc2C)ccc1OC1CCN(C(C)=O)CC1`, inactive: 4.45%; to `Cc1cc2oc(=O)cc(CN3CCOCC3)c2cc1O`, inactive: 17.4%.
In the case of `Cc1cc([N+](=O)[O-])ccc1NC(=O)Nc1ccccc1F`, the “growth rescue (activation)” value is inactive: 2.38%.
Under `C=CCN1C(=O)/C(=C/C=C2/N(CC)c3ccc(S(=O)(=O)N(C)C)cc3N2CC)SC1=S` stands inactive: -14.4%; under `COc1ccccc1/C=C\C(=O)NCC(=O)N/N=C(/C)c1cccc([N+](=O)[O-])c1`, inactive: 5.37%; under `O=C(NC1CCCCCC1)c1cccc(S(=O)(=O)N2CCOCC2)c1`, inactive: 5.41%.
As for `Cc1ccc(N=Cc2c(O)n(-c3nccs3)c(=O)c3ccccc23)c(C)c1`, the “growth rescue (activation)” value was inactive: 8.9%.
To `O=C(CSc1nncs1)NCCCc1ccccc1` belongs inactive: -1.7%; to `CC(=O)Nc1ccc(NC(=O)C2CCCN2S(=O)(=O)c2cccc3nsnc23)cc1` (stereo not drawn), inactive: 7.66%.
For `CC(C)NC(=O)C1(C)CCN1C(=O)c1c(F)cccc1F` (stereo not drawn), the “growth rescue (activation)” value is inactive: 10.4%.
Under `COC(=O)c1ccccc1NC(=O)CSc1nc(C)cc(C)n1` stands inactive: 5.98%; under `Nc1nc(SCc2ccccc2)n[nH]1`, inactive: -2.05%; under `CN(C)c1ccc(-c2nnn(CC(=O)Nc3ccc4c(c3)OCCO4)n2)cc1`, inactive: 10.4%.
As for `Cc1cc(C)c(NC(=O)C[N+](C)(C)CC(O)COc2cccc3ccccc23)c(C)c1` (stereo not drawn), the “growth rescue (activation)” value is inactive: 11.8%.
On to `Cc1ccccc1C(=O)Nc1ccnn1C1CCN(CCCc2ccccc2)CC1`, for which the “growth rescue (activation)” value was inactive: 13.4%.
Take `CCCCN1C(=O)C(=O)N(CC(=O)Nc2ccc(OC(F)(F)F)cc2)C1=O`: the “growth rescue (activation)” value was inactive: 10.3%.
On to `O=C(COc1ccc(S(=O)(=O)NC2CCCC2)cc1)N1CCCCC1`, for which the “growth rescue (activation)” value is inactive: 5.91%.
To `Cc1ccc(S(=O)(=O)N(Cc2n[nH]c(=S)n2-c2ccccc2)c2ccccc2)cc1` belongs inactive: 20.2%.
`CCOc1ccccc1N1CCN(C(=O)COc2ccc3c(C)cc(=O)oc3c2)CC1`: the “growth rescue (activation)” value is inactive: 13.8%.
For the compound `CCc1nc2c(OCc3ccc4c(c3)OCO4)cccn2c1N(C=O)Cc1ccc(OC)cc1`, the “growth rescue (activation)” value was inactive: 3.34%.
As for `CCc1cccc(N(C(=O)c2csnn2)C(C(=O)NC2CCCC2)c2cccnc2)c1` (stereo not drawn), the “growth rescue (activation)” value was inactive: 10.6%.
Under `COc1ccc(C(=O)Oc2ccc(C(=S)N3CCOCC3)cc2)cc1` stands inactive: 37.4%; under `CCCNC(=O)C1(C)CCN(Cc2csc(-c3ccc(Cl)cc3)n2)C1` (stereo not drawn), inactive: 13%; under `CCOc1cc(N2CCOCC2)c(OCC)cc1NC(=O)CSc1nnc(N)s1`, inactive: 14.9%.
To `C/C(=N\S(=O)(=O)c1ccc(C)cc1)Nc1cc(C(C)C)c(O)cc1C` belongs inactive: 4.59%.
Under `CCOC(=O)Cc1ccc2sc(-c3ccccc3)nc2c1` stands inactive: 4.73%; under `N#C/C(=C\c1c(N2CCC(C(N)=O)CC2)nc2ccccn2c1=O)S(=O)(=O)c1ccc(Cl)cc1`, inactive: 2.5%.
As to `COc1ccc(NS(=O)(=O)c2ccc(C)c(NC(=O)NC3CCCCC3)c2)cc1`, the “growth rescue (activation)” value is inactive: -0.859%.
For `Cc1cc2oc(=O)cc(C)c2cc1NC(=O)CCl`, the “growth rescue (activation)” value is inactive: -13.8%.
Under `CCNC(=S)N1CCC(C(O)(c2ccccc2)c2ccccc2)CC1` stands inactive: 7.77%.
Take `Cc1ccc(C2(C)NC(=O)N(CC(=O)Nc3cc(S(=O)(=O)N4CCOCC4)ccc3C)C2=O)cc1` (stereo not drawn): the “growth rescue (activation)” value is inactive: 11.5%.
To `COc1ccc(-c2nn(-c3ccccc3C)cc2CNC(C)Cn2cncn2)cc1F` (stereo not drawn) belongs inactive: 0.549%.
For `COc1ccc(CCn2c(NN)nc3c2c(=O)[nH]c(=O)n3C)cc1`, the “growth rescue (activation)” value is inactive: 4.29%.
Under `CN(C)S(=O)(=O)Oc1ccc(Cl)cc1C(=O)Nc1ccc(F)cc1F` stands inactive: 16%; under `O=C(NC1CCOc2ccccc21)c1ccc(Cl)nc1` (stereo not drawn), inactive: 12.4%; under `Cc1ccc(CN2C(=O)C(F)(F)Oc3ccccc32)cc1`, inactive: 39.2%.
On to `CC(=O)c1cccc(NC(=O)COC(=O)c2ccccn2)c1`, for which the “growth rescue (activation)” value was inactive: 13.3%.
Under `O=C(CSc1nc2ccccc2c(=O)n1CCCN1CCOCC1)Nc1cccc(S(=O)(=O)N2CCCCCC2)c1` stands inactive: -15.3%; under `COc1ccc(/C=C2\C(=O)NC(=S)N2C(=O)c2ccc(C)cc2)cc1`, inactive: 2.21%.
Under `O=C(COC(=O)c1cccnc1Cl)NC(=O)c1ccc(OC(F)F)cc1` stands inactive: -12.4%; under `COc1ccccc1OCC#CCn1ccnc1`, inactive: -13.3%; under `COc1ccc(C(=O)NC(C)c2nnc(SCC(=O)NC3CCCC3)n2C)cc1` (stereo not drawn), inactive: -22.1%.
For the compound `O=C(CCN1C(=O)/C(=C/c2cccs2)SC1=S)NC1=NCCS1`, the “growth rescue (activation)” value was inactive: 8.61%.
To `CCCNC(=O)c1cc(C2CCCN(S(=O)(=O)c3ccccc3)C2)on1` (stereo not drawn) belongs inactive: -0.543%.
Under `CCCOc1ccc(C(=O)NC(=S)NCc2cccnc2)cc1` stands inactive: 27.1%; under `CN(C)CCN[C@H]1CCC2C3CC=C4C[C@@H](O)CC[C@]4(C)C3CC[C@@]21C` (stereo partly drawn), inactive: 11.7%.
Take `O=C(Nc1ccc(Br)cn1)c1cccc(-c2cc3ccccc3oc2=O)c1`: the “growth rescue (activation)” value was inactive: -16.4%.
Take `CCOc1ccccc1NC(=S)NCc1cccn1C`: the “growth rescue (activation)” value is inactive: -4.04%.
Under `CCC(C)NC(=O)Nc1ccc(Br)cc1` (stereo not drawn) stands inactive: -6.35%; under `CC1=CC(=C(C#N)c2nc3ccccc3s2)C=C(C)N1c1ccc(F)cc1`, inactive: 8.1%.
To `CC(NC(=O)c1ccccc1Br)c1nnc(SCC(=O)NC2CCCCC2)n1C` (stereo not drawn) belongs inactive: 6.51%.
For the compound `Cc1cccc(NC(=O)CN2CCC(C(=O)c3ccc4c(c3)OCCO4)CC2)c1`, the “growth rescue (activation)” value was inactive: -1.37%.
Under `CCOCCn1c(=O)c2c(nc3n2CCCN3Cc2ccccc2)n(C)c1=O` stands inactive: 15.7%; under `CC1(C(=O)NS(=O)(=O)c2ccc(F)cc2F)CCN1C(=O)CCc1ccc(Cl)cc1Cl` (stereo not drawn), inactive: -0.785%.
To `CC[n+]1ccccc1/C=C/Nc1ccccc1` belongs inactive: -0.821%.
For the compound `O=C(COC(=O)c1ccccc1)NC1CCCCCC1`, the “growth rescue (activation)” value is inactive: -0.68%.
Under `CCCC(=O)Nc1cc(-c2nnc3c4ccccc4c(C)nn23)ccc1C` stands inactive: 6.15%.
